According to the RNAGym collection of RNA variant scans (doi:10.1073/pnas.2313332121):
Variants at the background level are over-represented here.

B1: TPR 5TU (parent)
chain: GGAUCUUCUCGAUCUAACAAAAAAGACAAAUCUGCCACAAAGCUUGAGAGCAUCUUCGGAUGCAGAGGCGGCAGCCUUCGGUGGCGCGAUAGCGCCAACGUUCUCAACUAUGACACGCAAAACGCGUGCUCCGUUGAAUGGAGUUUAUCAUG

Variants of: B1
Assay: polymerase ribozyme fitness, log enrichment relative to wild type (log ratio); higher = more active; in vitro selection for triplet polymerase activity
Outline: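 Genotype fitness is the logarithm of its enrichment divided by wild-type enrichment, using inverse-variance-weighted averages of replicates. That logarithm is base 2. Enrichment was measured by Illumina sequencing of input and output libraries from one triplicate in vitro selection round, with frozen incubation at −7 °C, on PCR-built, transcribed mutant libraries of each subunit of a heterodimeric triplet polymerase ribozyme, retaining genotypes with ≥10 input reads and ≥1 read per output.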

Variant	polymerase ribozyme fitness (log ratio)
G50A C76U C96A A121G	-1.1
G50A C85G C93A C129G	≤ -4.2
G50A C85U C105U U134G A147G U151C	≤ -4.2
G50A C87A A121C U144G	≤ -4.2
G50A C87A C118U	≤ -4.2
G50A C87U A97U	-3.34
G50A C93G G124A C125U G133A U135G A150G	≤ -4.2
G50A C95G G124A G126A G140U C149U	≤ -4.2
G50A C95U	-2.44
G50A C95U C125U	-2.44
G50A C103U	-1.49
G50A G59A C96U A122U A142G A147U	-3.67
G50A G59A U101G	-0.0298
G50A G59U C76A C103U A122G U135A U145C	≤ -4.2
G50A G62A G117A	-1.7
G50A G68A G80A C99G U148A A150G	≤ -4.2
G50A G68C U77C U82G G92C	≤ -4.2
G50A G70A C95U G100A	≤ -4.2
G50A G71C U82G C85G	≤ -4.2
G50A G84A U104G A122U G133U G141C	≤ -4.2
G50A G86A C131U	-1.93

Variant	polymerase ribozyme fitness (log ratio)
G50A G86U	-3.78
G50A G94U C116G	-1.85
G50A G141C	-1.77
G50A G143C	-3.85
G50A U53C U56A A91U G94C U127G G143U	≤ -4.2
G50A U56A	-1.5
G50A U56A G71U A115C A137G A138G	≤ -4.2
G50A U77G G81A A91U A97G A122U	≤ -4.2
G50A U78G G86A A115U	≤ -4.2
G50A U78G G86U U127C	≤ -4.2
G50A U82G G88C G92U A120C A137C C149U	≤ -4.2
G50A U145C	-0.761
G50C A52C A73U U77G C79A G88A U102A C125G	≤ -4.2
G50C A52U U102G U135C	≤ -4.2
G50C A60G G67A U148C	≤ -4.2
G50C A64C G80A A120C G128U	≤ -4.2
G50C A64U C93G U111G C116U G143U	≤ -4.2
G50C A64U U78C C116G	≤ -4.2
G50C A66G G84A C87U U139A G143U	≤ -4.2
G50C A73C A106C	≤ -4.2
G50C A73U G84U G133U	≤ -4.2

Variant	polymerase ribozyme fitness (log ratio)
G50C A91G	-4
G50C A113U	≤ -4.2
G50C A115U A137C	≤ -4.2
G50C A119U	-3.92
G50C C51U C79U C93G	≤ -4.2
G50C C51U G92U	-2.09
G50C C54A C93G U135C U145G	≤ -4.2
G50C C54A G80C C93G	≤ -4.2
G50C C54G C87G A98U G124A G126U A147C	≤ -4.2
G50C C54U G83C G94U C108G	≤ -4.2
G50C C57A A66C C85G	≤ -4.2
G50C C57G G140U U144G U146A	≤ -4.2
G50C C57U G59C C99G	≤ -4.2
G50C C69A C75U	≤ -4.2
G50C C75A G86U G100A A147G	≤ -4.2
G50C C75U C85G	≤ -4.2
G50C C85G G133A	≤ -4.2
G50C C87A C95U	≤ -4.2
G50C C87U C123A C125G	-3.47
G50C C93A	≤ -4.2
G50C C93G C99U	≤ -4.2

Variant	polymerase ribozyme fitness (log ratio)
G50C C93G U104C	≤ -4.2
G50C C93U	-4.15
G50C C105G A142C	≤ -4.2
G50C C118A	-4.05
G50C C125A	-2.76
G50C G58A C125A	-3.17
G50C G58C G83A G140A A142U	≤ -4.2
G50C G58U	-1.88
G50C G59U C93U C95G U102G U135A	≤ -4.2
G50C G65C A120G U146A A150G	≤ -4.2
G50C G65U A66G G88U	≤ -4.2
G50C G80A A89C	≤ -4.2
G50C G81A G86A A115U G136U	≤ -4.2
G50C G83C A89G	≤ -4.2
G50C G84A U151G	≤ -4.2
G50C G84U A142C	≤ -4.2
G50C G84U C105G	≤ -4.2
G50C G92A	≤ -4.2
G50C G92A C96G G124A	≤ -4.2
G50C G92U A119U	≤ -4.2
